Source: PubChem BioAssay AID602332 (National Center for Advancing Translational Sciences (NCATS), 2012)
Several values for one entry are separate records, joined by “and”; a condition that tells them apart may be missing. Equal entries are not always repeated. In all, about 420,000 compounds went through this assay and about 75 (0.02%) were called active. This list was built around the results that the source calls inconclusive (neither active nor inactive); the mix of calls is not that of the screen. Calls come from the whole dose curve; as a rule, active = well fitted activation curve with a large enough effect; inconclusive = small, poorly fitted or top-dose-only effect; inactive = no such curve, though single readings can be large or run the other way. A potency beside an inconclusive call is a rough fit, not a confirmed value.

Assay: qHTS for Inducers of the Endoplasmic Reticulum Stress Response (ERSR) in Human Glioma: qHTS; note: nearly all actives have a fitted effect of over 35% in size; for activation: % of control where 0% means no effect
Conditions: U87-MG GRP78 promoter luciferase reporter, 16 h; activation: active compounds read high
Outline: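 Stably transfected U87-MG human glioma cells carrying a GRP78-based luminescent sensor were seeded at 1000 cells/well, pin-dosed with compounds and incubated 16 h. Luciferase reagent was then added, and end-point luminescence was read after 10 min at room temperature.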
Potency is the fitted concentration of half-maximal effect; tags give direction and shape of the fitted curve.

Potency, inconclusive:
Cc1cccc(NC(=O)c2sc3nc(N)c(C#N)cc3c2N)c1 15.8 µM [activator, single point], CC1(c2ccc(OC(F)F)cc2)NC(=O)N(CC(=O)Nc2cccc(F)c2)C1=O (configuration not stated) 39.8 µM [activator, partial curve, poor fit], CCSc1nnc(Nc2ccc(C)cc2)s1 3.55 µM [activator, partial curve, poor fit], NC(=O)COc1ccc(/C=N\NC(=O)c2ccc(-c3ccccc3)cc2)cc1 11.2 µM [activator, single point], O=C(Nc1ccc(Cc2ccncc2)cc1)c1ccc(Cl)c([N+](=O)[O-])c1 14.1 µM [activator, full curve, poor fit], COc1cc2cc3c(N)c(C(=O)Nc4sc(C)c(C)c4C#N)sc3nc2cc1OC 11.2 µM [activator, single point], COc1cc(C(=O)NC(CCSC)C(=O)OCC(=O)C(C)(C)C)cc(OC)c1OC (configuration not stated) 39.8 µM [activator, partial curve, poor fit], COc1ccc(NC(=S)N/N=C/c2ccc(F)cc2)cc1OC 50.1 µM [activator, single point], O=C(NCc1ccco1)C1CCN(S(=O)(=O)N2CCOCC2)CC1 3.98 µM [activator, single point], O=C(Nc1nc2ccc(F)cc2s1)c1ccc([N+](=O)[O-])o1 2.24 µM [activator, partial curve, poor fit], Cc1cccc(NC(=O)Nc2ccccn2)c1C 15.8 µM [activator, partial curve, poor fit], COC(=O)CC1(c2cccc3ccccc23)C(=O)c2ccccc2C1=O 11.2 µM [activator, single point], Cc1cc(NC(=O)Nc2ccc3c(ccn3C)c2)sn1 5.85 µM [activator, single point], S=c1[nH]nc(-c2ccco2)n1/N=C/C(Cl)=C/c1ccccc1 10 µM [activator, single point], N/C(=N\OC(=O)CCn1cccc(C(F)(F)F)c1=O)c1ccc(Cl)cc1 50.1 µM [activator, single point], CCN(CC)S(=O)(=O)c1cccc(C(=O)Nc2cccc(C)c2)c1 11.2 µM [activator, partial curve, poor fit], N#C/C(=C(/O)CCl)c1nc(-c2ccccc2)cs1 35.5 µM [activator, partial curve, poor fit], CCOc1ccccc1/C=N/Nc1nc2ccccc2o1 2 µM [activator, partial curve, poor fit], C=C(C)C(=O)Oc1ccc(N=Nc2ccc(C)cc2)ccc1=O 50.1 µM [activator, partial curve, poor fit], O=C1NC(=Nc2cccc(O)c2)S/C1=C\c1cccc([N+](=O)[O-])c1 20 µM [activator, partial curve, poor fit], CCOc1cc(/C=C(\C#N)C(=O)Nc2cccc(C(=O)O)c2)cc(Br)c1OC(=O)c1ccc(OC)cc1 14.1 µM [activator, single point], O=C(Nc1ccc2c(c1)OCO2)N1CCN(c2ccccc2Cl)CC1 7.08 µM [activator, partial curve, poor fit], O=C(c1ccc(Cl)cc1)c1cnc(Nc2ccccc2)s1 5.62 µM [activator, partial curve, poor fit], COC(=O)COc1ccc(S(=O)(=O)NCCC2=CCCCC2)cc1Cl 28.2 µM [activator, single point], Cc1ccc(C(=O)Nc2ccc3c(c2)OCO3)cc1S(=O)(=O)N1CCCC1 39.8 µM [activator, partial curve, poor fit], Cc1cc(C)c2ccc(C)[n+]([O-])c2c1O 4.47 µM [activator, single point], CCCOc1ccc(C2c3c(-c4ccccc4O)n[nH]c3C(=O)N2CCc2ccccc2)cc1OCC (configuration not stated) 11.2 µM [activator, full curve, poor fit], CCCOc1ccc(C(=O)NNC(=S)NC(=O)c2cc(-c3ccc(Cl)cc3)nc3ccccc23)cc1 25.1 µM [activator, partial curve, poor fit], CC(C)(C)c1ccc(S(=O)(=O)/C=C/C#N)cc1 2.93 µM [activator, single point], O=C(Nc1cc(N2CCOCC2)ncn1)NC1(C(F)(F)F)Oc2ccccc2O1 11.2 µM [activator, full curve], Cc1ccc(Sc2ccc(NC(=O)CCl)cc2)c(C)c1 44.7 µM [activator, single point], N#C/C(=C\c1ccc(O)c(O)c1)C(=O)NCCCc1ccccc1 11.7 µM [activator, partial curve], O=C(CSc1nc2cc(Cl)ccc2o1)c1cccs1 39.8 µM [activator, partial curve, poor fit], COc1ccc2[nH]c3ccccc3c2c1 8.91 µM [activator, partial curve, poor fit], COC(=O)c1cccc([N+](=O)[O-])c1CN1CCCC(C(N)=O)C1 (configuration not stated) 50.1 µM [activator, single point], Cc1onc(NC(=O)c2ccc([N+](=O)[O-])o2)c1Br 12.6 µM [activator, single point], O=C(NCc1ccccn1)C(=O)Nc1ccccc1 44.7 µM [activator, partial curve, poor fit], COc1cc(C(=O)OCc2cc(=O)n3ccsc3n2)ccc1OC(C)C 12.6 µM [activator, single point], Oc1ccc(NCc2cccs2)cc1 35.5 µM [activator, partial curve, poor fit], CCc1cc(C(=O)c2ccc(C)cc2)c(NC(=O)CCl)s1 20 µM [activator, single point], COc1ccc(-c2cc3ccc(O)cc3oc2=O)cc1OC 6.31 µM [activator, partial curve, poor fit], O=C(CCl)Nc1c2c(nn1-c1ccccc1)CSC2 44.7 µM [activator, partial curve, poor fit], Cc1cccc(NC(=O)c2ccc([N+](=O)[O-])o2)n1 12.6 µM [activator, single point], CCc1cc2c(=O)[nH]c(-c3ccccn3)nc2s1 28.2 µM [activator, single point]

activation, inactive:
O=S(=O)(NCCC1=CCCCC1)c1ccc(Br)cc1 -3.84%, COc1cc2[nH]c3c(=O)n(CCN(C(C)C)C(C)C)cnc3c2cc1OC -1.03%, Cc1ccccc1COC[C@H](CC(C)C)N1CCN(C(=O)c2cccc(C(F)(F)F)c2)CCC1=O -4.94%, Cc1onc(-c2ccccc2Cl)c1C(=O)Nc1nnc(C2CCCCC2)s1 0.0148%, Cn1nnnc1NCc1ccc(Cl)cc1 -2.92%, CCN1CCN(CCCN(Cc2ccco2)C(=S)Nc2ccc(C)c(Cl)c2)CC1 -0.865%, CCC(C)Nc1nc2c(C)cccn2c(=O)c1C=Nc1ccc(OC)cc1 (configuration not stated) -0.614%, COC(=O)c1cc2c(=O)c3ccccc3oc2nc1C -4.5%, OCCOCCOc1ccccc1OCCOCCO -7.31%, COC(=O)CC1(C(=O)OC)Oc2ccc(Br)cc2C(=O)N1c1cccc(Cl)c1Cl (configuration not stated) -12.1%, COC(=O)c1cc2sccc2n1CC(=O)Nc1cccc(SC)c1 -1.81%, Cc1[nH]c2ccccc2c1C(=O)CNc1ccc(Br)cc1 -5.54%, COc1ccc(-c2nc3cc(NC(=S)NC(=O)Cc4ccccc4)ccc3o2)cc1 -0.76%, Cc1ccc(S(=O)(=O)N2CCN(C)CC2)cc1[N+](=O)[O-] -2.34%, COc1ccc(S(=O)(=O)c2c(N)n(Cc3ccco3)c3nc4ccccc4nc23)cc1 -8.27%, CN(CC(=O)O)c1ccc(/C=C2\C=Cc3ccccc32)cc1 1.15% and -0.876%, CCN(CC)CCNC(=O)c1ccc(NC(=O)c2cccc(S(=O)(=O)Nc3ccc(C)cc3)c2)cc1 -4.02%, CC1=NOC(=O)/C1=C\c1ccc(-c2cccc(Cl)c2)o1 -13.2%, Cc1nnc(SCC(=O)Nc2cc(S(=O)(=O)N3CCCC3)ccc2Cl)n1C1CC1 -3.55%, CCC(C)(C)c1ccc(OCCCC[n+]2cccc(C)c2)c(C(C)(C)CC)c1 -15.2%, CCOC(=O)C1C(=O)NC(c2ccccc2)=NC1c1ccc(C(C)C)cc1 (configuration not stated) -7.82%, CC(C)(C)C(=O)Nc1ccc(-c2nc3ccccc3s2)cc1 -11.4%, CCC(C)Nc1nc2c(c(=O)n(C)c(=O)n2C)n1Cc1ccc(Cl)cc1 (configuration not stated) -4.56%
